The supplement of paper PMC12217912
The list shows a part of the results. The full chains were built here from the parent and the listed change. Values near 0.05 are background.

B1: TEV protease; numbered along this chain (parent)
chain: MGESLFKGPRDYNPISSSICHLTNESDGHTTSLYGIGFGPFIITNKHLFRRNNGTLVVQSLHGVFKVKDTTTLQQHLVDGRDMIIIRMPKDFPPFPQKLKFREPQREERICLVTTNFQTKSMSSMVSDTSCTFPSGDGIFWKHWIQTKDGQCGSPLVSTRDGFIVGIHSASNFTNTNNYFTSVPKNFMELLTNQEAQQWVSGWRLNADSVLWGGHKVFMVKPEEPFQPVKEATQL

Variants of: B1
Assay: raw area under fraction-flipped curve 0-4 h after induction (AUC4h, not background-subtracted), DNA-recorder readout of cleavage of the substrate (dimensionless); higher = more cleavage of the substrate by the protease variant
Details: temperature: 34 °C; time window: 0-4 h after rhamnose induction
Protocol: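 In vivo DNA recorder in E. coli TOP10(DE3) ΔrhaA at 34 °C. Each TEVp single-site mutant (parent TEVp 0) is paired with a single-site variant of the 7-mer TEVs (canonical ENLYFQ|S). The substrate sits between flexible linkers in a Bxb1-sfGFP-TEVs-SsrA fusion, so cleavage stabilises Bxb1 and speeds flipping of a recombination array, read by NGS. The value is the raw area under the fraction-flipped curve over 0-4 h after rhamnose induction (AUC4h), with ≥20 reads per time point. It is not background-subtracted; inactive controls average about 0.047.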
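Also: Bxb1 expression induced with 0.2% (w/v) L-rhamnose at OD600 near 0.5, cultures sampled hourly, flipped fraction per protease–substrate barcode pair counted by paired-end Illumina sequencing.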

Row | Variant | area with substrate ENDYFQS | area with substrate ENGYFQS | area with substrate ENIYFQS | area with substrate ENMYFQS | area with substrate ENPYFQS | area with substrate ENYYFQS | area with substrate ENEYFQS | area with substrate ENHYFQS | area with substrate ENKYFQS | area with substrate ENRYFQS
1 | V200F | 0.0652 | 0.0379 | 0.0496 | 0.0623 | 0.0723 | 0.0557 | – | – | – | –
2 | G202C | 0.0266 | 0.0505 | 0.0689 | 0.0631 | 0.057 | – | 0.0645 | 0.0437 | 0.0805 | 0.067
3 | A207S | 0.0689 | 0.0582 | 0.111 | 0.081 | – | 0.0588 | 0.0544 | 0.0584 | 0.0541 | 0.0625
4 | D208H | 0.0526 | – | – | 0.0774 | – | 0.0606 | – | 0.056 | 0.0872 | 0.0721
5 | E224I | 0.0595 | 0.0685 | – | – | – | 0.0371 | – | 0.0602 | – | 0.0479
6 | E3Y | – | – | 0.118 | – | – | – | 0.0625 | – | 0.0612 | 0.0521
7 | P96Q | – | 0.0642 | 0.123 | – | – | 0.0387 | 0.0641 | – | – | 0.0607
8 | R106P | – | 0.0542 | 0.13 | – | 0.058 | – | 0.0654 | 0.0581 | – | 0.0519
9 | K120I | – | 0.0588 | 0.12 | – | 0.0535 | – | 0.0614 | – | 0.0576 | 0.0403
10 | D128S | – | 0.0663 | 0.131 | – | 0.0528 | – | 0.0555 | – | 0.0742 | 0.0504
11 | D137P | – | 0.0611 | – | 0.108 | – | – | 0.0625 | 0.0532 | – | 0.0677
12 | C152H | – | – | – | – | – | 0.0485 | 0.0618 | – | – | –
13 | I164F | – | – | 0.0397 | 0.0358 | – | – | 0.0598 | – | – | –
14 | E189K | – | – | 0.106 | – | – | – | 0.0662 | – | 0.0579 | –
15 | E195Y | – | – | – | – | – | – | 0.07 | – | – | 0.0576
16 | V200G | – | – | – | – | 0.092 | – | 0.0416 | – | – | –
17 | V200Q | – | 0.0449 | – | – | – | – | 0.058 | – | – | –
18 | T72E | – | – | – | – | 0.0629 | 0.0616 | – | 0.0497 | – | –
19 | I167E | – | – | – | – | – | 0.0309 | – | – | – | –
20 | N186A | – | – | – | – | 0.0478 | – | – | – | – | –
21 | P184K | – | – | – | 0.0551 | – | 0.0574 | – | 0.0625 | 0.0619 | 0.0626
22 | K216M | – | – | – | 0.0575 | 0.075 | 0.0601 | – | 0.0586 | 0.0617 | –
23 | G8I | – | – | – | 0.0437 | – | – | – | – | 0.0758 | –
24 | G35K | – | – | – | – | 0.0487 | – | – | – | – | 0.0404

Same assay, conditions: temperature: 34 °C; time window: 0-4 h after rhamnose induction

Row | Variant | area with substrate ENSYFQS | area with substrate ENTYFQS | area with substrate ENWYFQS | area with substrate ENFYFQS | area with substrate ENNYFQS | area with substrate ENQYFQS | area with substrate ENVYFQS
25 | G202C | 0.0534 | 0.0567 | 0.0522 | – | – | – | –
26 | A207S | 0.0594 | 0.055 | 0.0396 | 0.0811 | 0.0681 | 0.0675 | 0.0703
27 | D208H | – | 0.0773 | – | – | 0.0405 | – | –
28 | E224I | 0.0847 | 0.0617 | – | 0.0833 | 0.0898 | 0.0594 | –
29 | E3Y | – | – | 0.0671 | 0.0588 | 0.0742 | – | 0.0837
30 | P96Q | 0.0554 | 0.0787 | 0.0527 | – | 0.043 | 0.069 | –
31 | R106P | 0.0546 | 0.0588 | – | – | 0.0635 | – | 0.0825
32 | K120I | – | – | – | 0.0743 | 0.0631 | 0.0764 | 0.0716
33 | D128S | 0.0629 | 0.0591 | 0.0641 | – | 0.056 | 0.0645 | –
34 | D137P | – | – | – | – | – | – | 0.0846
35 | C152H | 0.0652 | – | – | 0.0596 | – | 0.0574 | 0.0526
36 | I164F | – | – | – | 0.0437 | – | 0.0339 | –
37 | E189K | 0.0639 | 0.0621 | – | – | – | 0.0656 | –
38 | E195Y | 0.066 | 0.0648 | – | – | – | – | –
39 | V200G | – | 0.0613 | – | – | – | 0.0358 | –
40 | V200Q | 0.0467 | – | – | – | – | – | –
41 | T72E | 0.0446 | – | – | 0.0599 | – | 0.0656 | –
42 | I167E | 0.0516 | 0.0439 | 0.025 | 0.0566 | 0.0385 | 0.0649 | –
43 | N186A | – | – | – | 0.0905 | – | – | –
44 | P184K | 0.0519 | 0.0619 | – | – | 0.0559 | – | 0.0651
45 | K216M | – | 0.0712 | – | – | – | – | –
46 | G8I | 0.0621 | – | – | – | 0.0451 | 0.0608 | –
47 | G35K | – | – | 0.0227 | – | – | 0.0534 | –
48 | D128G | – | – | – | – | – | 0.0522 | –
49 | V200K | – | – | – | – | – | – | 0.064
